Results from PMC7275043 (Nature Communications, 2020).

Assays:
[1] = target: T1, PB2 cap-binding domain of influenza A/PR8 (PB2CB) (Influenza A virus, UniProt P03428)
[2] = target: T1, PB2 cap-binding domain of influenza A/PR8 (PB2CB); remark: listed apart in the source
[3] = target: T1, PB2 cap-binding domain of influenza A/PR8 (PB2CB); remark: listed apart in the source
[4] = tested on: influenza A/PR8
[5] = tested on: influenza A/PR8; set-up: species or system BALB/c mice; conditions: mouse, in vivo
[6] = tested on: influenza A/PR8; assay type: cell-based, influenza A/Puerto Rico/8/34 (H1N1)
[7] = tested on: influenza A/PR8; assay type: cell-based, influenza A/Puerto Rico/8/34 (H1N1); remark: listed apart in the source
[8] = target: PB2 cap-binding domain of influenza A/PR8 (influenza A/Puerto Rico/8/34 (H1N1), UniProt P03428 318-483); assay: BLI; conditions: both partners purified

## Ac-WDISQVLLIDGSDISQVLLID-NH2 [12Bscr2]
[1]
  binding to immobilized PB2CB (BLI): clear binding event
[2]
  increase of Th-T binding and scattering intensity of PB2CB: not
  structure of peptide-induced PB2CB aggregates (TEM): amorphous structure
[3]
  effect on PB2 cap-binding activity: showed only a mild effect
[4]
  effect on viral replication (area covered by plaques): did not show any effect on viral

## Ac-WDLPQLPVSDGSDLPQLPVSD-NH2 [12Bpro2]
[5]
  virus titers in lung homogenates: did not show inhibitory effects
[1]
  binding to immobilized PB2CB (BLI): did not show any affinity for PB2CB
[2]
  increase of Th-T binding and scattering intensity of PB2CB: not
  structure of peptide-induced PB2CB aggregates (TEM): amorphous structure
[3]
  effect on PB2 cap-binding activity: had no effect
[4]
  effect on viral replication (area covered by plaques): does not affect viral replication

## Ac-WDLIQLIVSDGSDLIQLIVSD-NH2 [12B]
[6]
  antiviral effect in multicycle replication assay: acts as an antiviral peptide against influenza A
[7]
  protection against cytopathic effects: acts as an antiviral peptide against influenza A
[5]
  virus titers in lung homogenates: small but significant reduction
[1]
  Kd of 12B lower compared with 12Bscr2: > 10 fold
  binding to immobilized PB2CB (BLI): clear binding event
[2]
  ANS binding of PB2CB when seeded with peptide: increased binding of 8-anilinonaphtalene-1-sulfonic acid (ANS)
  increase of Th-T binding and scattering intensity of PB2CB: increased Th-T binding and scattering intensity
  structure of peptide-induced PB2CB aggregates (TEM): fiber-like
[3]
  effect on PB2 cap-binding activity: concentration-dependent loss of cap-binding function
[4]
  antiviral activity in time of addition assay: unchanged
  reduction of influenza A/PR8 plaque area: ~ 80%

B1: peptide 12B (peptide)
peptide: WDLIQLIVSDGSDLIQLIVSD
notes: also called amyloid peptide 12B; synthetic amyloid 12B; source: synthetic peptide
[8]
  Kd: 65.8 ± 0.91 nM
